Substitutions are numbered along the chain they refer to; changes in the protein carry UniProt numbers. This is one part of the list.
B1: UAUAAGG (DNA:RNA)
RNA: GGGAGACCGGAAUUCAGAUUGUCCUAUAAGGUUAAAUCCCGUCGUAGCCACCA
DNA 1: CAATCTGAATTCCGGTCTCCC
DNA 2: TGGTGGCTACGACGGGATT
B2: GGGUAGU (DNA:RNA)
RNA: B1 RNA with U25G, A26G, U27G, A28U, G31U
DNA 1: CAATCTGAATTCCGGTCTCCC
DNA 2: TGGTGGCTACGACGGGATT
B3: AAGUAUU (DNA:RNA)
RNA: B1 RNA with U25A, U27G, A28U, G30U, G31U
DNA 1: CAATCTGAATTCCGGTCTCCC
DNA 2: TGGTGGCTACGACGGGATT
B4: GAGUCUU (DNA:RNA)
RNA: B1 RNA with U25G, U27G, A28U, A29C, G30U, G31U
DNA 1: CAATCTGAATTCCGGTCTCCC
DNA 2: TGGTGGCTACGACGGGATT
B5: GAAGUAC (DNA:RNA)
RNA: B1 RNA with U25G, U27A, A28G, A29U, G30A, G31C
DNA 1: CAATCTGAATTCCGGTCTCCC
DNA 2: TGGTGGCTACGACGGGATT
B6: GGGGGUA (DNA:RNA)
RNA: GGGAGACCGGAAUUCAGAUUGUCCGGGGGUAUUAAAUCCCGUCGUAGCCACCA
DNA 1: CAATCTGAATTCCGGTCTCCC
DNA 2: TGGTGGCTACGACGGGATT
B7: ACUUAGC (DNA:RNA)
RNA: B1 RNA with U25A, A26C, A28U, G31C
DNA 1: CAATCTGAATTCCGGTCTCCC
DNA 2: TGGTGGCTACGACGGGATT
B8: GCCUGUC (DNA:RNA)
RNA: B6 RNA with G26C, G27C, G28U, A31C
DNA 1: CAATCTGAATTCCGGTCTCCC
DNA 2: TGGTGGCTACGACGGGATT
B9: ACUAUUU (DNA:RNA)
RNA: B1 RNA with U25A, A26C, A29U, G30U, G31U
DNA 1: CAATCTGAATTCCGGTCTCCC
DNA 2: TGGTGGCTACGACGGGATT
B10: ACUGUCG (DNA:RNA)
RNA: B1 RNA with U25A, A26C, A28G, A29U, G30C
DNA 1: CAATCTGAATTCCGGTCTCCC
DNA 2: TGGTGGCTACGACGGGATT
B11: AACCCAC (DNA:RNA)
RNA: B1 RNA with U25A, U27C, A28C, A29C, G30A, G31C
DNA 1: CAATCTGAATTCCGGTCTCCC
DNA 2: TGGTGGCTACGACGGGATT
B12: UGACAGC (DNA:RNA)
RNA: B1 RNA with A26G, U27A, A28C, G31C
DNA 1: CAATCTGAATTCCGGTCTCCC
DNA 2: TGGTGGCTACGACGGGATT
B13: CAACGUU (DNA:RNA)
RNA: B6 RNA with G25C, G26A, G27A, G28C, A31U
DNA 1: CAATCTGAATTCCGGTCTCCC
DNA 2: TGGTGGCTACGACGGGATT
B14: UCGAUAA (DNA:RNA)
RNA: B6 RNA with G25U, G26C, G28A, G29U, U30A
DNA 1: CAATCTGAATTCCGGTCTCCC
DNA 2: TGGTGGCTACGACGGGATT
B15: GACCUGG (DNA:RNA)
RNA: B1 RNA with U25G, U27C, A28C, A29U
DNA 1: CAATCTGAATTCCGGTCTCCC
DNA 2: TGGTGGCTACGACGGGATT
B16: CAGUGCC (DNA:RNA)
RNA: B6 RNA with G25C, G26A, G28U, U30C, A31C
DNA 1: CAATCTGAATTCCGGTCTCCC
DNA 2: TGGTGGCTACGACGGGATT
B17: UCCACGC (DNA:RNA)
RNA: B1 RNA with A26C, U27C, A29C, G31C
DNA 1: CAATCTGAATTCCGGTCTCCC
DNA 2: TGGTGGCTACGACGGGATT
B18: AUAUUUG (DNA:RNA)
RNA: B6 RNA with G25A, G26U, G27A, G28U, G29U, A31G
DNA 1: CAATCTGAATTCCGGTCTCCC
DNA 2: TGGTGGCTACGACGGGATT
B19: ACCAGAA (DNA:RNA)
RNA: B6 RNA with G25A, G26C, G27C, G28A, U30A
DNA 1: CAATCTGAATTCCGGTCTCCC
DNA 2: TGGTGGCTACGACGGGATT
B20: GAAGUCC (DNA:RNA)
RNA: B6 RNA with G26A, G27A, G29U, U30C, A31C
DNA 1: CAATCTGAATTCCGGTCTCCC
DNA 2: TGGTGGCTACGACGGGATT
B21: CAUUCCC (DNA:RNA)
RNA: B1 RNA with U25C, A28U, A29C, G30C, G31C
DNA 1: CAATCTGAATTCCGGTCTCCC
DNA 2: TGGTGGCTACGACGGGATT
B22: ACUCAUG (DNA:RNA)
RNA: B1 RNA with U25A, A26C, A28C, G30U
DNA 1: CAATCTGAATTCCGGTCTCCC
DNA 2: TGGTGGCTACGACGGGATT
B23: CGUUAAG (DNA:RNA)
RNA: B1 RNA with U25C, A26G, A28U, G30A
DNA 1: CAATCTGAATTCCGGTCTCCC
DNA 2: TGGTGGCTACGACGGGATT
B24: CAGUAGG (DNA:RNA)
RNA: B1 RNA with U25C, U27G, A28U
DNA 1: CAATCTGAATTCCGGTCTCCC
DNA 2: TGGTGGCTACGACGGGATT
B25: CCGCAAG (DNA:RNA)
RNA: B1 RNA with U25C, A26C, U27G, A28C, G30A
DNA 1: CAATCTGAATTCCGGTCTCCC
DNA 2: TGGTGGCTACGACGGGATT
B26: CGCCAGU (DNA:RNA)
RNA: B1 RNA with U25C, A26G, U27C, A28C, G31U
DNA 1: CAATCTGAATTCCGGTCTCCC
DNA 2: TGGTGGCTACGACGGGATT
B27: AAUCUCC (DNA:RNA)
RNA: B1 RNA with U25A, A28C, A29U, G30C, G31C
DNA 1: CAATCTGAATTCCGGTCTCCC
DNA 2: TGGTGGCTACGACGGGATT
B28: GCUGUCU (DNA:RNA)
RNA: B6 RNA with G26C, G27U, G29U, U30C, A31U
DNA 1: CAATCTGAATTCCGGTCTCCC
DNA 2: TGGTGGCTACGACGGGATT
B29: GGGAGCC (DNA:RNA)
RNA: B6 RNA with G28A, U30C, A31C
DNA 1: CAATCTGAATTCCGGTCTCCC
DNA 2: TGGTGGCTACGACGGGATT
B30: GGCGCGG (DNA:RNA)
RNA: B6 RNA with G27C, G29C, U30G, A31G
DNA 1: CAATCTGAATTCCGGTCTCCC
DNA 2: TGGTGGCTACGACGGGATT
B31: GCAACCG (DNA:RNA)
RNA: B1 RNA with U25G, A26C, U27A, A29C, G30C
DNA 1: CAATCTGAATTCCGGTCTCCC
DNA 2: TGGTGGCTACGACGGGATT

These binders were tested against T1, RBFOX1 RRM RbFoxmut (Fox-RRM*) (Homo sapiens, UniProt Q9NWB1 109-208, R118D;E147R;N151S;E152T) (assay: EMSA; HiTS-Eq, 1 nM pool, 10 min; buffer printed only for the single-RNA assays: 10 mM Tris pH 7.5, 150 mM NaCl, 3.4 mM EDTA, 0.001% NP-40, 30 C). Conditions: tags: His6 N-terminal (pET28a); label: 5' 32P.
T1 sequence: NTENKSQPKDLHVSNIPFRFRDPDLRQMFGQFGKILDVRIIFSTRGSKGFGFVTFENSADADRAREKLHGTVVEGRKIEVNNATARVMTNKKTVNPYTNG
Summary of the method: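 Purified RbFox RRM (wild type or mutant) was equilibrated for 10 min in 50 µL with 1 nM of a 5′-radiolabelled pool of RNA with 7 randomized nucleotides, its flanks annealed to DNA oligonucleotides, across increasing protein concentrations. Free RNA was separated by 8% native PAGE, excised, reverse-transcribed, PCR-barcoded and sequenced on an Illumina HiSeq 2500. Relative association constants came from read-count changes of each variant against the control reaction, normalised to the cognate motif.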

First: B1
Second: B2
The binding signal of the first is lower: 0.0749 KA relative to UGCAUGU for the first, 0.139 KA relative to UGCAUGU for the second.

First: B3
Second: B4
The binding signal of the first is higher: 0.127 KA relative to UGCAUGU for the first, 0.0734 KA relative to UGCAUGU for the second.

First: B5
Second: B6
The binding signal of the first is lower: 0.0666 KA relative to UGCAUGU for the first, 0.137 KA relative to UGCAUGU for the second.

First: B7
Second: B8
The binding signal of the first is lower: 0.121 KA relative to UGCAUGU for the first, 0.229 KA relative to UGCAUGU for the second.

First: B9
Second: B10
The binding signal of the first is higher: 0.123 KA relative to UGCAUGU for the first, 0.114 KA relative to UGCAUGU for the second.

Compared with B11, B12 is lower in binding signal: 0.104 KA relative to UGCAUGU for the first, 0.0539 KA relative to UGCAUGU for the second.

First: B13
Second: B14
The binding signal of the first is higher: 0.104 KA relative to UGCAUGU for the first, 0.0723 KA relative to UGCAUGU for the second.

Compared with B15, B16 is higher in binding signal: 0.0986 KA relative to UGCAUGU for the first, 0.402 KA relative to UGCAUGU for the second.

Compared with B17, B18 is higher in binding signal: 0.0819 KA relative to UGCAUGU for the first, 0.0924 KA relative to UGCAUGU for the second.

First: B19
Second: B20
The binding signal of the first is higher: 0.0963 KA relative to UGCAUGU for the first, 0.0491 KA relative to UGCAUGU for the second.

First: B21
Second: B22
The binding signal of the first is lower: 0.0546 KA relative to UGCAUGU for the first, 0.158 KA relative to UGCAUGU for the second.

First: B23
Second: B24
The binding signal of the first is higher: 0.141 KA relative to UGCAUGU for the first, 0.0923 KA relative to UGCAUGU for the second.

First: B25
Second: B26
The binding signal of the first is higher: 0.099 KA relative to UGCAUGU for the first, 0.0925 KA relative to UGCAUGU for the second.

First: B27
Second: B28
The binding signal of the first is lower: 0.049 KA relative to UGCAUGU for the first, 0.0672 KA relative to UGCAUGU for the second.

First: B29
Second: B30
The binding signal of the first is higher: 0.14 KA relative to UGCAUGU for the first, 0.0869 KA relative to UGCAUGU for the second.

B31 was tested, and the binding signal was 0.0732 KA relative to UGCAUGU.

Reference: paper PMC9911399, “Two distinct binding modes provide the RNA-binding protein RbFox with extraordinary sequence specificity”
